# Out of some 110,000 compounds screened, about 230 (0.21%) showed an effect of 50% or more. Some of the results follow.
# Molecular target: DPAP1 (Plasmodium falciparum, UniProt Q8IIJ9)
# Assay: primary screen, percent inhibition; read by cleavage of a fluorogenic dipeptide substrate; higher = more effect of the substance
# Set-up: species or system P. falciparum D10 trophozoite lysates; single well
# 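Further: 30 min substrate incubation versus DMSO and 10 µM JCP410 controls.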
# Chain of DPAP1 (Q8IIJ9 whole entry, looked up): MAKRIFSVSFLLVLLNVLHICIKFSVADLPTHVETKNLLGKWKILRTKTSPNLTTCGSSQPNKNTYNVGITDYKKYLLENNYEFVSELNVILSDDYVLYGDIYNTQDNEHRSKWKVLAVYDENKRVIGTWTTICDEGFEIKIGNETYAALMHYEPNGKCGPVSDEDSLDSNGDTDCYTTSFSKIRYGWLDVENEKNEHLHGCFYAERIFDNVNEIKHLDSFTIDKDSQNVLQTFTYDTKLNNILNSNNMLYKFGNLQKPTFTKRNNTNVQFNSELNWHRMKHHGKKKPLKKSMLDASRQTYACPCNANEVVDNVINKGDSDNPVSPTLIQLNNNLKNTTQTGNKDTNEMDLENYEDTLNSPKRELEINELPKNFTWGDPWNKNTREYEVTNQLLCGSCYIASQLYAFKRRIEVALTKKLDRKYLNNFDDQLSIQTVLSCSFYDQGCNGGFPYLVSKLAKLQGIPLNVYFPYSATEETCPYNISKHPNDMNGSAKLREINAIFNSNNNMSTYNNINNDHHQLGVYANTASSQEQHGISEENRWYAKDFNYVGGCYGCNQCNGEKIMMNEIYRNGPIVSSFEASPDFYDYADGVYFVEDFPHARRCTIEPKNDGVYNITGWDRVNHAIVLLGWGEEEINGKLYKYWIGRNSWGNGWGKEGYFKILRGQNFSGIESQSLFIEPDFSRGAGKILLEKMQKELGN
row,SMILES,% Inhibition @ 10 uM
1,O=c1c(Cl)c(NCc2ccccc2)cnn1C12CC3CC(CC(C3)C1)C2,-4.85%
2,O=C(Nc1ccccc1)c1cc(-c2cccs2)nc2ccccc12,-3.27%
3,Cc1ccn2cc(CNC(=O)c3cccc(Cl)c3)nc2c1,-9.28%
4,COC(=O)c1nnn(-c2ccc(F)c(Cl)c2)c1C(=O)OC,-1.58%
5,CCOc1ccc(-n2c(C)cc(CO)c2C)cc1,3.73%
6,CCOC(=O)c1c(C)[nH]c(C)c1S(=O)(=O)NCCCN1CCc2ccccc2C1,2.24%
7,Cc1ccc(S(=O)(=O)N(C)c2ccc(C(=O)Nc3cccnc3)cc2)cc1,-5.54%
8,Cc1ccc(CNc2cc(-c3ccccc3)nc3nncn23)cc1,-0.808%
9,CCCC1=NN2C(=N)/C(=C/c3ccc(OS(=O)(=O)c4ccccc4)c(OC)c3)C(=O)N=C2S1,0.685%
10,O=C(c1ccccc1)c1ccc(NC(=O)c2ccco2)cc1,0.907%
11,CC1CCCCN1C/C=C/c1ccc(N(C)C)cc1 (stereo not shown),-3.15%
12,O=C(c1ccc(CS(=O)(=O)c2ccc(Br)cc2)o1)N1CCN(c2ncccn2)CC1,6.95%
13,CCOC(=O)C1CCCCN1Cc1cc(C)c(OC)cc1C (stereo not shown),-3.65%
14,CC(C)c1ccccc1NC(=O)c1ccc(Br)o1,-1.56%
15,COc1ccc(S(=O)(=O)N(CC(=O)Nc2ccc(CC#N)cc2)c2ccc(Cl)cc2)cc1,-4.14%
16,COc1ccc(CN2CCN(c3cccc(C)c3C)CC2)c2ccccc12,0.0657%
17,CCOc1ccc(OCc2cccc(C(=O)Nc3cc(C)on3)c2)cc1,0.709%
18,COc1ccc(-n2nnnc2S(=O)(=O)CC(=O)N2CCCCC2)cc1,-4.35%
19,O=C(CCN1CCCC1)N1N=C(c2ccc(Cl)cc2)CC1c1ccco1 (stereo not shown),2.56%
20,O=C1c2ccccc2-c2nc3nonc3nc21,32.5%
21,CCOc1ccccc1C(=O)Nc1ccc(S(=O)(=O)N2CCC(C)CC2)cc1,1.79%

row,SMILES,% Inhibition @ 10 uM
1,O=C(O)C1CCN(C(=O)c2ccccc2F)CC1,-0.992%
2,Cc1cc(C(F)F)n2nc(C(=O)Nc3ccc(C)c(C)c3)nc2n1,-1.22%
3,O=C(NCCN1CCCC1)c1ccc(CSc2nc3cccnc3n2Cc2ccc(F)cc2)cc1,-0.878%
4,COc1ccc(OC)c(CNC(=O)c2cc3c(-c4ccccc4F)nn(C)c3s2)c1,-1.43%
5,O=C(Cn1nc(Cc2ccncc2)c2ccccc2c1=O)NCCCN1CCCCC1,-0.431%
6,CCC(C)NC(=O)CCc1nc(-c2ccc(C)cc2)no1 (stereo not shown),6.64%
7,O=c1c2ccccc2n2c(-c3ccc(O)cc3)nnc2n1Cc1ccccc1Cl,-5.37%
8,CN1CCC(N2CCN(C)CC2)CC1,-1.81%
9,N=C1/C(=C\c2cccc3ccccc23)C(=O)N=C2SC(N3CCOCC3)=NN12,6.2%
10,O=C(Nc1c(Cl)cc(Cl)cc1C(=O)NCc1ccccc1)c1ccco1,-0.67%
11,CCOc1ccc2c(c1)sc1nc(-c3cc4cc(Cl)ccc4oc3=O)cn12,3.05%
12,C=CCn1c(SCC(=O)N2CCCCC2)nc2sc(C)c(C)c2c1=O,-0.725%
13,CC(C)CCNS(=O)(=O)c1cc(Br)cnc1N,-2.84%
14,O=C(c1ccc(Cl)cc1)N1CCCCC(Sc2nnc3ccccn23)C1=O (stereo not shown),0.147%
15,CC(C)CNC(=O)CCc1nc(-c2ccc(C(C)(C)C)cc2)no1,-4.95%
16,COc1cccc(C2=NOC(C(=O)NCc3ccccc3)C2)c1 (stereo not shown),-0.0115%
17,COCc1cc(C)nc2sc3c(c12)NC(c1ccccc1O)NC3=O (stereo not shown),0.121%
18,N#Cc1c(NC(=S)NC(=O)C23CC4CC(CC(C4)C2)C3)sc2c1CCCC2,10.7%
19,Clc1cccc(-c2nc(N3CCC4(CC3)OCCO4)nc3c2COc2ccccc2-3)c1,-6.59%
20,COc1ccc(-n2nc3c(N4CCC(C(=O)NCCC5=CCCCC5)CC4)nnc(C)c3c2C)cc1,4.21%
21,COc1cccc2cc(-c3nc4ccccc4o3)c(=O)oc12,-0.969%

row,SMILES,% Inhibition @ 10 uM
1,CC1=C(C(=O)N2CCCCC2)C(c2ccc3c(c2)OCO3)C2=C(O)CC(C)(C)CC2=N1 (stereo not shown),2.51%
2,CC(C)Oc1ccc(-c2cc(C(=O)NC3CC3)c3ccccc3n2)cc1,-7.93%
3,CC(C)Cn1c(CN2CC(C)OC(C)C2)nc2c1c(=O)[nH]c(=O)n2C (stereo not shown),-8.42%
4,CCOC(=O)C1=C(CS(=O)(=O)c2ccccc2)NC(=O)NC1c1ccccc1C (stereo not shown),-2.16%
5,CNC(=O)/C(C#N)=C/c1c(Oc2cccc(C)c2C)nc2ccccn2c1=O,-1.43%
6,CC1CC(C)CN(CCNC(=O)c2cc3ccc4cccnc4c3[nH]2)C1 (stereo not shown),-1.07%
7,Cc1nnc2c(Oc3ccc(C(C)(C)C)cc3)nc3ccccc3n12,-3.63%
8,CCOC(=O)c1cnc2c(-c3ccc(Cl)cc3)cnn2c1-c1ccccc1,4.74%
9,CC(=O)c1cccc(C(=O)N[C@@H](CSCc2ccccc2)C(=O)NCC#N)c1,-1.83%
10,Cc1cc2nc(COc3cc(C)c(Cl)c(C)c3)cc(=O)n2o1,-0.495%
11,Cc1cc2c(c(=O)n1CC1CCCO1)C(c1ccccc1Br)C(C#N)=C(N)O2 (stereo not shown),3.93%
12,CC1(C)CC2=Nc3ncnn3C(c3ccc(C(C)(C)C)cc3)C2=C(O)C1 (stereo not shown),-0.413%
13,COC(=O)c1ccc(C2C3=C(O)CC(C)(C)CC3=NC(C)=C2C(=O)OCc2ccccc2)cc1 (stereo not shown),7.24%
14,COCC1=Nc2ncnn2C(c2cc(OC)ccc2OC)/C1=C(/O)OC (stereo not shown),1.73%
15,O=C1c2ccccc2C(=O)N1c1cccc(N2C(=O)c3ccccc3C2=O)c1,-4.35%
16,COc1ccc(NS(=O)(=O)c2cc(C(=O)Nc3ccccc3)ccc2OC)cc1,-0.132%
17,Cc1csc(NC(=O)CSc2nnc(Cc3cccn3C)n2-c2ccccc2)n1,-4.97%
18,COc1ccc(C(=O)NCc2ccco2)c(OC)c1,18.5%
19,N#CC1=C(N)OC2=C(C(=O)CC(c3ccco3)C2)C1c1ccc(F)cc1F (stereo not shown),2.32%
